Results published in article PMC5892938.
The list shows a part of the results. At the low end of the ranking the order means little.

target: GST-SBP-SLBP (stem-loop binding protein) (UniProt Q14493); assay: targeted RNA Bind-n-Seq; conditions: RBNS binding buffer: 25 mM Tris pH 7.5, 150 mM KCl, 3 mM MgCl2, 0.1% Tween, 0.5 mg/mL BSA, 1 mM DTT; 27 nM protein, 750 pM RNA pool; temperature not stated; high values mean tight binding;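 note: DESeq read counts versus GST-SBP nonspecific binding control pulldown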

Sequence	binding signal (log2 fold change)
GGUCACGUCUCAAUCAACUCUUCUUCCAGGGAAAGCCCUGGUUAUCUCAACAGCUCGCAGUCAAG	0.115
GGUCACGUCUCAAUCAACUCUUAAGAGGGGGGGAAAACCCCUUUGCCCUCGUAUUCAACAGCUCGCAGUCAAG	-0.295
GGUCACGUCUCAAUCAACUCUUCUCCAGGAGUUUCCUCCUGUAAUGUCAACAGCUCGCAGUCAAG	-0.083
GGUCACGUCUCAAUCAACUCUAAAGAGGGGGGGAAAACCCCUUUGCCCUCACCUUCAACAGCUCGCAGUCAAG	-0.382
GGUCACGUCUCAAUCAACUCAAUCUCCAGGGAAAUCCCUGGCAUAGUCAACAGCUCGCAGUCAAG	0.00803
GGUCACGUCUCAAUCAACUCCUUAGAGGGGGGGAAAACCCCUUUACCCUCGUUCUCAACAGCUCGCAGUCAAG	-0.0759
GGUCACGUCUCAAUCAACUCAAUGUCAGGAGUUUCCUCCUGCUUUCUCAACAGCUCGCAGUCAAG	-0.113
GGUCACGUCUCAAUCAACUCAGUCUCCAGGGAAAGCCCUGGCUUUUUCAACAGCUCGCAGUCAAG	-0.173
GGUCACGUCUCAAUCAACUCAAUCUCAGGAGUUUUCUCCUGCUUAUUCAACAGCUCGCAGUCAAG	0.107
GGUCACGUCUCAAUCAACUCAACAGAGGGGGGGAAAACCCCUUUACCCUCAUCAUCAACAGCUCGCAGUCAAG	-0.0881
GGUCACGUCUCAAUCAACUCUUUCCCCAGGGAAACCCCUGGUAAUCUCAACAGCUCGCAGUCAAG	-0.315
GGUCACGUCUCAAUCAACUCAUUCUCCAGGGAAACCCCUGGCUUUUUCAACAGCUCGCAGUCAAG	0.0546
GGUCACGUCUCAAUCAACUCUUCGUCAGGAGUUUUCUCCUGCAAUCUCAACAGCUCGCAGUCAAG	0.00878
GGUCACGUCUCAAUCAACUCUUUCCCAGGAGUUUACUCCUGUUAAUUCAACAGCUCGCAGUCAAG	0.0353
GGUCACGUCUCAAUCAACUCAUCCUCAGGAGUUUACUCCUGCAAUUUCAACAGCUCGCAGUCAAG	-0.322
GGUCACGUCUCAAUCAACUCUAUUCCCAGGGAAAACCCUGGUUUUCUCAACAGCUCGCAGUCAAG	-0.34
GGUCACGUCUCAAUCAACUCAUCGUCAGGAGUUUGCUCCUGUAUAUUCAACAGCUCGCAGUCAAG	0.235
GGUCACGUCUCAAUCAACUCAUCGGCAGGAGUUUACUCCUGGAUAUUCAACAGCUCGCAGUCAAG	0.0378
GGUCACGUCUCAAUCAACUCUAUCUCCAGGGAAAUCCCUGGCUAUUUCAACAGCUCGCAGUCAAG	0.136
GGUCACGUCUCAAUCAACUCACUAGAGGGGGGGAAAACCCCUUUACCCUCCGUAUCAACAGCUCGCAGUCAAG	0.189
GGUCACGUCUCAAUCAACUCUCUAGAGGGGGGGAAAACCCCUUUACCCUCAAAAUCAACAGCUCGCAGUCAAG	-0.205
GGUCACGUCUCAAUCAACUCAUACGAGGGGGGGAAAACCCCUUUGCCCUCAUUCUCAACAGCUCGCAGUCAAG	-0.629
GGUCACGUCUCAAUCAACUCAUCGCCCAGGGAAAGCCCUGGUAAAUUCAACAGCUCGCAGUCAAG	-0.795
GGUCACGUCUCAAUCAACUCAAAAGAGGGGGGGAAAACCCCUUUGCCCUCACAAUCAACAGCUCGCAGUCAAG	0.31
GGUCACGUCUCAAUCAACUCAGUUCCAGGAGUUUCCUCCUGCAUAUUCAACAGCUCGCAGUCAAG	0.0258

Sequence	binding signal (log2 fold change)
GGUCACGUCUCAAUCAACUCAAUCCCCAGGGAAAUCCCUGGUUAAUUCAACAGCUCGCAGUCAAG	0.035
GGUCACGUCUCAAUCAACUCUUCGUCCAGGGAAAGCCCUGGUUUUCUCAACAGCUCGCAGUCAAG	-0.0976
GGUCACGUCUCAAUCAACUCUUCGUCCAGGGAAAGCCCUGGUAAAUUCAACAGCUCGCAGUCAAG	0.0243
GGUCACGUCUCAAUCAACUCAAUCCCAGGAGUUUUCUCCUGCUAUCUCAACAGCUCGCAGUCAAG	0.211
GGUCACGUCUCAAUCAACUCUCCCGAGGGGGGGAAAACCCCUUUACCCUCACUCUCAACAGCUCGCAGUCAAG	0.234
GGUCACGUCUCAAUCAACUCAUUUUCCAGGGAAAUCCCUGGCAUAUUCAACAGCUCGCAGUCAAG	0.33
GGUCACGUCUCAAUCAACUCAAUUCCAGGAGUUUGCUCCUGCUAAUUCAACAGCUCGCAGUCAAG	0.294
GGUCACGUCUCAAUCAACUCAGUCCCCAGGGAAAGCCCUGGCAAAUUCAACAGCUCGCAGUCAAG	-0.243
GGUCACGUCUCAAUCAACUCUUUCGCAGGAGUUUUCUCCUGGUUAUUCAACAGCUCGCAGUCAAG	-0.102
GGUCACGUCUCAAUCAACUCCCCAGAGGGGGGGAAAACCCCUUUACCCUCAAUUUCAACAGCUCGCAGUCAAG	-0.476
GGUCACGUCUCAAUCAACUCACAAGAGGGGGGGAAAACCCCUUUACCCUCGUCCUCAACAGCUCGCAGUCAAG	0.385
GGUCACGUCUCAAUCAACUCAACUCCAGGAGUUUACUCCUGCAAUGUCAACAGCUCGCAGUCAAG	0.0962
GGUCACGUCUCAAUCAACUCUAUCCCAGGAGUUUACUCCUGCAUAUUCAACAGCUCGCAGUCAAG	-0.0994
GGUCACGUCUCAAUCAACUCUAUUUCAGGAGUUUCCUCCUGUUUUCUCAACAGCUCGCAGUCAAG	-0.03
GGUCACGUCUCAAUCAACUCAUCGUCAGGAGUUUUCUCCUGUAAAUUCAACAGCUCGCAGUCAAG	0.0518
GGUCACGUCUCAAUCAACUCUUCUCCAGGAGUUUACUCCUGUAUACUCAACAGCUCGCAGUCAAG	-0.0724
GGUCACGUCUCAAUCAACUCAAUUCCAGGAGUUUCCUCCUGCUUUUUCAACAGCUCGCAGUCAAG	0.00527
GGUCACGUCUCAAUCAACUCUCUAGAGGGGGGGAAAACCCCUUUACCCUCCAAUUCAACAGCUCGCAGUCAAG	0.0236
GGUCACGUCUCAAUCAACUCUUUUUCAGGAGUUUACUCCUGCAUAUUCAACAGCUCGCAGUCAAG	-0.181
GGUCACGUCUCAAUCAACUCUUUCCCAGGAGUUUUCUCCUGUAUAUUCAACAGCUCGCAGUCAAG	-0.163
GGUCACGUCUCAAUCAACUCAUUUCCAGGAGUUUACUCCUGCAAUCUCAACAGCUCGCAGUCAAG	-0.102
GGUCACGUCUCAAUCAACUCAGUUUCAGGAGUUUUCUCCUGCUUAUUCAACAGCUCGCAGUCAAG	0.0671
GGUCACGUCUCAAUCAACUCUAUCCCAGGAGUUUUCUCCUGCAUUUUCAACAGCUCGCAGUCAAG	0.269
GGUCACGUCUCAAUCAACUCAUUAGAGGGGGGGAAAACCCCUUUGCCCUCAAUAUCAACAGCUCGCAGUCAAG	-0.227
GGUCACGUCUCAAUCAACUCUAUUCCCAGGGAAAGCCCUGGUUAAUUCAACAGCUCGCAGUCAAG	-0.0505

Sequence	binding signal (log2 fold change)
GGUCACGUCUCAAUCAACUCACAAGAGGGGGGGAAAACCCCUUUACCCUCAAUAUCAACAGCUCGCAGUCAAG	0.299
GGUCACGUCUCAAUCAACUCAUUCCCAGGAGUUUUCUCCUGCUUACUCAACAGCUCGCAGUCAAG	0.0732
GGUCACGUCUCAAUCAACUCUCCCGAGGGGGGGAAAACCCCUUUACCCUCAUCAUCAACAGCUCGCAGUCAAG	-0.445
GGUCACGUCUCAAUCAACUCAUCGUCCAGGGAAAGCCCUGGUUUUUUCAACAGCUCGCAGUCAAG	-0.153
GGUCACGUCUCAAUCAACUCAUCUCCCAGGGAAAUCCCUGGCUAUUUCAACAGCUCGCAGUCAAG	0.0905
GGUCACGUCUCAAUCAACUCAAACGAGGGGGGGAAAACCCCUUUACCCUCUACAUCAACAGCUCGCAGUCAAG	0.0245
GGUCACGUCUCAAUCAACUCAACUUCAGGAGUUUACUCCUGCUUACUCAACAGCUCGCAGUCAAG	-0.0735
GGUCACGUCUCAAUCAACUCAUCCCCAGGAGUUUCCUCCUGUUAUUUCAACAGCUCGCAGUCAAG	-0.0545
GGUCACGUCUCAAUCAACUCUUUAGAGGGGGGGAAAACCCCUUUACCCUCCAAUUCAACAGCUCGCAGUCAAG	-0.565
GGUCACGUCUCAAUCAACUCUAAAGAGGGGGGGAAAACCCCUUUGCCCUCAAAAUCAACAGCUCGCAGUCAAG	0.0428
GGUCACGUCUCAAUCAACUCUACUUCCAGGGAAAUCCCUGGCUAAUUCAACAGCUCGCAGUCAAG	-0.162
GGUCACGUCUCAAUCAACUCUUCCUCCAGGGAAACCCCUGGCUAUCUCAACAGCUCGCAGUCAAG	-0.019
GGUCACGUCUCAAUCAACUCUAUCUCCAGGGAAAUCCCUGGUAAUUUCAACAGCUCGCAGUCAAG	-0.153
GGUCACGUCUCAAUCAACUCUAUUUCAGGAGUUUUCUCCUGUAAACUCAACAGCUCGCAGUCAAG	-0.0842
GGUCACGUCUCAAUCAACUCAAUUCCAGGAGUUUCCUCCUGUUUUUUCAACAGCUCGCAGUCAAG	-0.301
GGUCACGUCUCAAUCAACUCAUCGUCAGGAGUUUUCUCCUGCUAAUUCAACAGCUCGCAGUCAAG	-0.0158
GGUCACGUCUCAAUCAACUCAUACGAGGGGGGGAAAACCCCUUUACCCUCAUUUUCAACAGCUCGCAGUCAAG	-0.141
GGUCACGUCUCAAUCAACUCACAGGAGGGGGGGAAAACCCCUUUACCCUCAAAUUCAACAGCUCGCAGUCAAG	0.0972
GGUCACGUCUCAAUCAACUCUUCCCCAGGAGUUUUCUCCUGCAUAUUCAACAGCUCGCAGUCAAG	-0.147
GGUCACGUCUCAAUCAACUCCAAAGAGGGGGGGAAAACCCCUUUGCCCUCAACAUCAACAGCUCGCAGUCAAG	-0.181
GGUCACGUCUCAAUCAACUCAACUUCCAGGGAAAGCCCUGGUUUAUUCAACAGCUCGCAGUCAAG	-0.0219
GGUCACGUCUCAAUCAACUCAACUUCCAGGGAAAUCCCUGGUUAACUCAACAGCUCGCAGUCAAG	0.209
GGUCACGUCUCAAUCAACUCUUUUCCCAGGGAAACCCCUGGCUAUCUCAACAGCUCGCAGUCAAG	0.0965
GGUCACGUCUCAAUCAACUCUCUCGAGGGGGGGAAAACCCCUUUGCCCUCAUCUUCAACAGCUCGCAGUCAAG	0.151
